# Test results taken from PubChem BioAssay (EPA / NIEHS).
# For part of its entries the source gives two or more results. Only these are listed. There may be further records. Values given together repeat one measurement (runs, samples, wells, individuals or studies). Inconclusive results are not listed. The calls were made as follows, unless noted: active = hit-call score of the fitted dose curve at least 0.9, where 1 is the maximum; inactive = score below 0.9. Some compounds were tested as several samples or in several runs, with calls that do not always agree. Marks such as (2×) give the number of equal values in this list.
# Columns and labels:
# [1] = ATG_DR4_LXR_CIS: Attagene CIS-FACTORIAL HepG2 Assay for human Liver X Receptor (LXR), DR4 submotif (AID 2282929); settings: HepG2 Attagene DR4 cis-reporter, mRNA transcription; actives raise or lower the signal
# In short: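 HepG2 cells were transiently transfected with multiple cis-regulated reporter units and dosed for 24 hours. The DR4 reporter mRNA was quantified by RT-PCR, 6-FAM labelling and capillary electrophoresis. Bidirectional fits used DMSO as baseline.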
# [2] = ATG_NRF2_ARE_CIS: Attagene CIS-FACTORIAL HepG2 Assay for human Nuclear Factor Erythroid 2 Related Factor 2 (NFR2) response to Antioxidant Response Elements (ARE) (AID 2282992); settings: HepG2 Attagene ARE/NRF2 reporter, transcription factor activity; actives raise or lower the signal;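 also: reporter mRNA level measured by RT-PCR and capillary electrophoresis fluorescence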
# In short: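 Transient MRTU transfection of HepG2; 24 h compound exposure; TriZol RNA, RT with oligo(dT), PCR, 6-FAM primer extension, HpaI cut, CE. Bidirectional fit vs DMSO.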
# [3] = ATG_BRE_CIS: Attagene CIS-FACTORIAL HepG2 Assay for human Bone Morphogenetic Protein (BMP) Response Element (BRE) (AID 2282933); settings: HepG2 BMP response element reporter, Attagene transcription factor profiling; actives raise or lower the signal
# In short: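 A HepG2 multiplex reporter system measured inducible reporter mRNA 24 h post-dosing. Detection: RT-PCR, 6-FAM primer extension, HpaI digestion, capillary electrophoresis. Activity fitted bidirectionally relative to DMSO.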
# [4] = target: Retinoic acid receptor alpha (Homo sapiens) (UniProt P10276); test: ATG_DR5_RAR_CIS: Attagene CIS-FACTORIAL HepG2 Assay for human Retinoic Acid Receptor Alpha (RARE), DR5 submotif (AID 2282934); settings: HepG2 Attagene cis-factorial RARE DR5 reporter, mRNA; actives raise or lower the signal;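 also: reporter responds to endogenous RAR alpha beta and gamma in HepG2 not RARA alone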
# [5] = ATG_ISRE_CIS: Attagene CIS-FACTORIAL HepG2 Assay for human Interferon Regulatory Factor 1 (IRF1) binding to an Interferon-Stimulated Response Element (ISRE) (AID 2282948); settings: HepG2 ISRE cis-reporter (Attagene), mRNA transcription readout; actives raise or lower the signal
# In short: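 Transfected HepG2 (multiple reporter transcription units, cis elements) dosed 24 h. RNA → oligo(dT) RT → PCR → 6-FAM primer extension → HpaI → CE. DMSO = negative control/baseline.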
# [6] = ATG_PBREM_CIS: Attagene CIS-FACTORIAL HepG2 Assay for human Phenobarbital-responsive Enhancer Module (PBREM) (AID 2282955); settings: HepG2 PBREM cis-reporter, Attagene multiplexed transcription; actives raise or lower the signal
# In short: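 HepG2 cells transiently transfected with multiple cis-regulated reporter units measure endogenous transcription factor activity; 24 h compound exposure. Reporter mRNA quantified by RT-PCR, fluorescent labelling, HpaI digestion and capillary electrophoresis; bidirectional fit versus DMSO.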
# [7] = ATG_SREBP_CIS: Attagene CIS-FACTORIAL HepG2 Assay for human Sterol Regulatory Element Binding (SREBP) (AID 2282962); settings: HepG2 Attagene cis-factorial SREBP reporter, mRNA; actives raise or lower the signal
# In short: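 Transfected HepG2 (cis-regulated reporter library, endogenous TFs) → compound 24 h → total RNA → oligo(dT) RT → reporter-specific PCR → FAM primer extension, HpaI cut → CE fluorescence. Fit bidirectional vs DMSO.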
# [8] = ATG_VDRE_CIS: Attagene CIS-FACTORIAL HepG2 Assay for human Vitamin D Receptor Element (VDRE) (AID 2282968); settings: HepG2 VDRE cis-reporter transcription, actives raise or lower the signal
# In short: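 Reporter mRNA induction, quantified by capillary electrophoresis of fluorescently labelled RT-PCR products, was read 24 h after dosing HepG2 cells carrying transiently transfected cis-regulated reporter units; gain or loss relative to DMSO.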
# [9] = target: Nuclear receptor subfamily 4 group A member 2 (Homo sapiens) (UniProt P43354); test: ATG_NURR1_TRANS: Attagene TRANS-FACTORIAL HepG2 Assay for human Nuclear Receptor Related Protein 1 (NURR1) (AID 2282985; active = hit-call score of the fitted dose curve at least 0.9, where 1 is the maximum); settings: HepG2 Attagene TRANS reporter, mRNA readout
# In short: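 Transient transfection of HepG2, human liver cells, with multiple GAL4-UAS reporter transcription units. Cells dosed 24 h, RNA isolated, reverse-transcribed, PCR-amplified, FAM-labelled, HpaI-digested, sized by capillary electrophoresis. DMSO served as negative control.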
# [10] = target: Myc proto-oncogene protein (Homo sapiens) (UniProt P01106); test: ATG_Myc_CIS: Attagene CIS-FACTORIAL HepG2 Assay for human Myelocytomatosis (Myc) Proto-Oncogene Transcription Factor (AID 2282990); settings: HepG2, Attagene cis-reporter transcription factor activity; actives raise or lower the signal
# In short: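 HepG2, transient MRTU transfection (cis promoters, endogenous TFs); 24 h dosing; TriZol RNA → oligo(dT) RT → PCR → 6-FAM primer extension → HpaI cut → CE. Bidirectional fit vs DMSO.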
# [11] = target: Nuclear receptor subfamily 1 group I member 2 (Homo sapiens) (UniProt O75469); test: ATG_PXR_TRANS: Attagene TRANS-FACTORIAL HepG2 Assay for human Pregnane X Receptor (PXR) (AID 2283008; active = hit-call score of the fitted dose curve at least 0.9, where 1 is the maximum)
# In short: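 Read-out is fluorescence of labelled reporter cDNA fragments separated by capillary electrophoresis after RT-PCR and HpaI digestion. Source: HepG2 cells carrying PXR-GAL4/UAS reporter constructs, treated 24 h; activity fitted upward relative to DMSO.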
# [12] = target: Cytochrome P450 2C19 (Homo sapiens) (UniProt P33261); test: NVS_ADME_hCYP2C19: NovaScreen (NVS) CYP450-related Enzyme Activity (ADME) Assay for human CYP2C19 (AID 2283113; active = hit-call score of the fitted dose curve at least 0.9, where 1 is the maximum;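 also: potency for inhibition seen as loss of fluorescent signal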)
# In short: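 Recombinant insect-cell-expressed enzyme, fluorescent substrate, 1 h after chemical addition, fluorescence intensity. Baseline = acetonitrile vehicle; activity scored as signal loss. Primary HTS single concentration 10 uM, duplicate; actives retested in concentration series.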
# [13] = target: human CYP1A2, CYP1A2 (gene 1544) (UniProt P05177); test: NVS_ADME_hCYP1A2: NovaScreen (NVS) CYP450-related Enzyme Activity (ADME) Assay for human CYP1A2 (AID 2283102; active = hit-call score of the fitted dose curve at least 0.9, where 1 is the maximum;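 also: potency for inhibition since loss of fluorescence marks reduced CYP1A2 activity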)
# In short: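 Fluorescence-intensity enzyme activity read-out, taken 0.5 h post-dosing, using insect-cell-derived recombinant CYP1A2 and specific fluorescent substrate. Acetonitrile served as negative control/baseline. Single-concentration duplicate screen at 10 uM, then concentration-response follow-up.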
# [14] = target: rat CYP2A1, Cyp2a1 (gene 24894) (UniProt P11711); test: NVS_ADME_rCYP2A1: NovaScreen (NVS) CYP450-related Enzyme Activity (ADME) Assay for rat CYP2A1 (AID 2283114)
# In short: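 Recombinant rat CYP2A1, cell-free, fluorogenic substrate turnover read by fluorescence intensity 0.75 h after dosing. Primary screen at 10 uM in duplicate; actives rerun as concentration-response up to 20 uM; loss of signal versus acetonitrile control.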
# Sequence of UniProt P01106 (P01106 whole entry, looked up): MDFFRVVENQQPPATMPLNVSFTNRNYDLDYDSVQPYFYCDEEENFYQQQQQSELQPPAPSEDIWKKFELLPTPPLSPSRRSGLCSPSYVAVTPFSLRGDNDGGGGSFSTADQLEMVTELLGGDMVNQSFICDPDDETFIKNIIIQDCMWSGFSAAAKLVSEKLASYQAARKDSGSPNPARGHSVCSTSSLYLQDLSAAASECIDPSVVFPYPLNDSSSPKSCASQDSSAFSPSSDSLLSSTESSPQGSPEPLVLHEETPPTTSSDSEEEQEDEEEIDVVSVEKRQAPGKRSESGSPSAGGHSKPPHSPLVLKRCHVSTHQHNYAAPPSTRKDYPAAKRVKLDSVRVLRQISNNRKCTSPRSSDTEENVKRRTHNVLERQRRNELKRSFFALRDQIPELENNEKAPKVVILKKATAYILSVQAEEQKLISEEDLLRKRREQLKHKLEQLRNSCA
# Sequence of UniProt P10276 (P10276 whole entry, looked up): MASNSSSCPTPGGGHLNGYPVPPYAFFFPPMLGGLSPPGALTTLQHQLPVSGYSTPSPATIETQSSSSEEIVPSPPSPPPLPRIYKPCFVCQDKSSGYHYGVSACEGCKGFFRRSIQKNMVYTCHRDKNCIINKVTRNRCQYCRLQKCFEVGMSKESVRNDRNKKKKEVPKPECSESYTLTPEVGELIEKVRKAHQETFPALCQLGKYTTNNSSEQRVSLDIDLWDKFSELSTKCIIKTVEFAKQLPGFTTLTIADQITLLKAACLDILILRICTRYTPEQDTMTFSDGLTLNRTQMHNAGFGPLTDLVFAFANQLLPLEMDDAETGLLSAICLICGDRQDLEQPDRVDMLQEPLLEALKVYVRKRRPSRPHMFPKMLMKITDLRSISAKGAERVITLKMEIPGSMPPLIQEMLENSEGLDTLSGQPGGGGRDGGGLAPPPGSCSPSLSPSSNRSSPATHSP
# Sequence of UniProt P05177 (P05177 whole entry, looked up): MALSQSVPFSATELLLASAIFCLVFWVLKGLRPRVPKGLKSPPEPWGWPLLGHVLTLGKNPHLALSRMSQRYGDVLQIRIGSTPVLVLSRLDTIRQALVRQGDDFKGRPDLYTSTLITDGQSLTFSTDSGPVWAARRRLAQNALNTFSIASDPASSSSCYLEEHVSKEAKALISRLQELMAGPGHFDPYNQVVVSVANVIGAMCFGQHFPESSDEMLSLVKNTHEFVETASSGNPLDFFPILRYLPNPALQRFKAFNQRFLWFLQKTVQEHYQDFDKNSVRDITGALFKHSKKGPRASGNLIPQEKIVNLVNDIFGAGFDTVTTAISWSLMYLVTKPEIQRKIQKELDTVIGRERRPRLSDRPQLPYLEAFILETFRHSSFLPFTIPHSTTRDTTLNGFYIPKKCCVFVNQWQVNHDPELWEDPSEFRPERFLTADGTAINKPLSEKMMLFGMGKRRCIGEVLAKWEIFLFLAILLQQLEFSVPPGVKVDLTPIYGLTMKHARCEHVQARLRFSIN
# Sequence of UniProt P11711 (P11711 whole entry, looked up): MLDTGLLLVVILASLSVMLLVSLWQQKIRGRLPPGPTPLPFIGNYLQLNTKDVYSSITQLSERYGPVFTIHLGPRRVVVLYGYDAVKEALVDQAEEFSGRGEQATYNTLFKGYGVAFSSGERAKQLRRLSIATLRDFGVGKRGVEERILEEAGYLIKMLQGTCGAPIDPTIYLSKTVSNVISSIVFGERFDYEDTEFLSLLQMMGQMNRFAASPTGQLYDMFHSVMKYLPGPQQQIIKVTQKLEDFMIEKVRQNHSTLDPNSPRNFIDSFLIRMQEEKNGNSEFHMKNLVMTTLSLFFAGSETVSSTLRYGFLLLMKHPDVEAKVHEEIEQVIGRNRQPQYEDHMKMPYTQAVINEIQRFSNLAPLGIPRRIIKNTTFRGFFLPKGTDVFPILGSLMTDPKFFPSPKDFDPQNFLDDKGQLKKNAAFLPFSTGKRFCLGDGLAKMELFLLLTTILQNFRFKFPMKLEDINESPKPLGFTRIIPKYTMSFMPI
# Sequence of UniProt O75469 (O75469 whole entry, looked up, the tested form may be a part): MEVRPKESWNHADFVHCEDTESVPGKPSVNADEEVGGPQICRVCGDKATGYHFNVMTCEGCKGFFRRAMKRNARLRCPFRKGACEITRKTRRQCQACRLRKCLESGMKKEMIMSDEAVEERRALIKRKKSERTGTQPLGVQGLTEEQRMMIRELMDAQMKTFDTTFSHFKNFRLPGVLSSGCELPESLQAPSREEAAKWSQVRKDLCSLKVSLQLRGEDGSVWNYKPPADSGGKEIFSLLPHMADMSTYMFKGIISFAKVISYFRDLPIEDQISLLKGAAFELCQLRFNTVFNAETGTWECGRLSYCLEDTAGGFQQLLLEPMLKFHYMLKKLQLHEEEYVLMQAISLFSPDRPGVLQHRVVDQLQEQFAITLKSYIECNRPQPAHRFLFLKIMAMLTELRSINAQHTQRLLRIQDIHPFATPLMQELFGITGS
# Sequence of UniProt P33261 (P33261 whole entry, looked up): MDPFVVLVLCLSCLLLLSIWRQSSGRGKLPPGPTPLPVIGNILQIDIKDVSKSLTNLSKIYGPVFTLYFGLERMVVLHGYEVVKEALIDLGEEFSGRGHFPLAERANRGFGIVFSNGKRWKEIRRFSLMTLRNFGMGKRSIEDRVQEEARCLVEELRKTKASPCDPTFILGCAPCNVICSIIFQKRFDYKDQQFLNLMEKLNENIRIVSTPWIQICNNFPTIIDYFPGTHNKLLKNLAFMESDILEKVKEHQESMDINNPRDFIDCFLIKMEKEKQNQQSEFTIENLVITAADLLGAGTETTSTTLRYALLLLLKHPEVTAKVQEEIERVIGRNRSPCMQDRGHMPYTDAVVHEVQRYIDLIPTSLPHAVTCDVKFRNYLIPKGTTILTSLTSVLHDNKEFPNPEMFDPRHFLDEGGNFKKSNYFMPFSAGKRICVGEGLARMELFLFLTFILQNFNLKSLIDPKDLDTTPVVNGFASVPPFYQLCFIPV
# Sequence of UniProt P43354 (P43354 whole entry, looked up, the tested form may be a part): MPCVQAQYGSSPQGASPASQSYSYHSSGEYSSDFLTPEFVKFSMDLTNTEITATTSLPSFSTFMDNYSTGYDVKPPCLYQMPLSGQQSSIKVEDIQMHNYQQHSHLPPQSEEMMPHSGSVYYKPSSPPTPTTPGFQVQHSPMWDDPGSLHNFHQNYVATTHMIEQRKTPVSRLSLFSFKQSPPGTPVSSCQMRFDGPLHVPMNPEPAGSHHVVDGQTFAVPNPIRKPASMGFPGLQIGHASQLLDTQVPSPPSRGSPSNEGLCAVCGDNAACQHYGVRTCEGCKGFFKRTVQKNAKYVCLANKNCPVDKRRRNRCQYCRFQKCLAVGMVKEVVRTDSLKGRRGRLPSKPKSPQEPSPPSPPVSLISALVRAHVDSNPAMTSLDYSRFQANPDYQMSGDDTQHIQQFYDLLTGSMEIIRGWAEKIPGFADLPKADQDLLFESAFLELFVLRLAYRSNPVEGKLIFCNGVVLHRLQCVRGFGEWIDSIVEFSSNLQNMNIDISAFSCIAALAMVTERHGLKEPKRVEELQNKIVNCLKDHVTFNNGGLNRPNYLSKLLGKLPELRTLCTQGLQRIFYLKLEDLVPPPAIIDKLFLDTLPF
structure (smiles),measurement,setting,value
COc1ccc(C(c2ccc(OC)cc2)C(Cl)(Cl)Cl)cc1,AC50,[1],"active: 14, 39.6, 23.3, 5.1 µM [separate samples]"
same,AC50,[2],"active: 29.5, 60.1, 38.8, 3.14 µM [separate samples]"
C=CCC1=C(C)C(OC(=O)C2C(C=C(C)C)C2(C)C)CC1=O (stereo unspecified),AC50,[3],"active: 42.3, 44.5, 26.4, 24.9, 44.6, 13.8 µM [separate samples]"
same,AC50,[4],"active: 971 nM, 763 nM, 609 nM, 494 nM, 20.8 µM, 3.04 µM [separate samples]"
same,AC50,[5],"active: 29.5, 55.7, 55, 26.6, 81.7 µM [separate samples]"
same,AC50,[6],"active: 1.79, 11.6, 20.8, 34.1 µM [separate samples]"
same,AC50,[7],"active: 43.7, 28.5, 24.7, 83.6, 34.9 µM [separate samples]"
same,AC50,[8],"active: 1.28, 5.2, 2.39, 1.89, 21.8 µM [separate samples]"
same,AC50,[9],"active: 29.6, 42, 39, 45.4, 28.2, 7.44 µM [separate samples]"
same,AC50,[10],"active: 35 (2×), 89.7, 126, 76.8 µM [separate samples]"
same,AC50,[2],"active: 28.9, 25.3, 27.2, 25.7, 27, 5.76 µM [separate samples]"
same,AC50,[11],"active: 1.07 µM, 632 nM, 1.57 µM, 1.45 µM, 2.13 µM, 13 µM [separate samples]"
same,AC50,[12],"active: 1.52, 1.37, 9.46, 3.84 µM [separate samples]"
CON(C)C(=O)Nc1ccc(Cl)c(Cl)c1,AC50,[11],"active: 9.65, 25.8, 27.1, 33.6 µM [separate samples]"
same,AC50,[13],"active: 4.33, 7.9, 9.85, 2.32 µM [separate samples]"
same,AC50,[14],"active: 917 nM, 2.36 µM, 5.85 µM, 556 nM [separate samples]"
